Test results published in the supplement of paper PMC8183993.
Counter-ions that a name gives are not always drawn. ± gives the standard deviation of the averaged measurements. Over roughly 3,200 compounds, “nuclei count (viability) relative to DMSO” has its median near 99; the lowest 2% begin near 16. The list shows a part of the results.

Each compound was assayed on U2OS (assay: nuclei count (viability) relative to DMSO (% of DMSO); higher = more viable cells). Conditions: 10 µM; 24 h.
Protocol: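 Primary image-based screen in U2OS cells: compounds at 10 uM for 24 h, then a 1 h o-propargyl-puromycin (OPP) pulse, click labelling, and high-throughput microscopy. Mean cytoplasmic OPP intensity and nuclei count were normalised to DMSO wells within each plate (DMSO = 100) and averaged over triplicate plates.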

First: CO[C@@H]1[C@H](OC(=O)NC(=O)CCl)CC[C@]2(CO2)[C@H]1[C@@]1(C)O[C@@H]1CC=C(C)C
Second: CO[C@H]1CC[C@@H](O[C@H]2C[C@H]([C@]3(C)CC[C@]4(C[C@H](O)[C@@H](C)[C@@H]([C@@H](C)/C=C(\C)C(=O)[C@H](C)C[C@H](C)C(=O)O)O4)O3)O[C@]3(O[C@@H]([C@H]4O[C@@](O)(CO)[C@H](C)C[C@@H]4C)C[C@@H]3C)[C@@H]2C)O[C@@H]1C [Nanchangmycin]
The nuclei count of the first is higher: 92.6 for the first, 59.8 for the second.

Compared with `C=CCN1C[C@H](C)N([C@H](c2ccc(C(=O)N(CC)CC)cc2)c2cccc(OC)c2)C[C@H]1C`, `C=CCN1C[C@H](C)N([C@H](c2ccc(C(=O)N(CC)CC)cc2)c2cccc(O)c2)C[C@H]1C` is higher in nuclei count: 91.4 for the first, 97.1 for the second.

First: N=C(N)NN [Aminoguanidine hydrochloride]
Second: COC(=O)[C@@H](N)CCCNC(=N)N[N+](=O)[O-]
The nuclei count of the first is higher: 105 for the first, 103 for the second.

First: C[C@H](N)[C@H](O)c1ccc(O)c(O)c1 [Levonordefrin]
Second: N#CC(C#N)=Cc1ccc(O)c(O)c1 [AG 18 (Tyrphostin 23)]
The nuclei count of the first is lower: 98.9 for the first, 103 for the second.

`CC(C)N(CCC(C(N)=O)(c1ccccc1)c1ccccn1)C(C)C` (stereo not given) [Disopyramide] and `O=c1c2ccccc2[se]n1-c1ccccc1` [Ebselen] are within error of each other in nuclei count: 95.2 for the first, 100 ± 7 for the second.

First: OC(Cc1ccncc1)C(Cl)(Cl)Cl (stereo not given)
Second: COP(=O)(OC)C(O)C(Cl)(Cl)Cl (stereo not given) [Trichlorfon]
The nuclei count of the first is lower: 101 for the first, 102 for the second.

Going from `CS(=O)(=O)Nc1ccc(Cc2noc(-c3ccc4[nH]cc(CCN)c4c3)n2)cc1` to `Cc1ccc2cc3c(ccc4ccccc43)c3c2c1CC3` [3-Methylcholanthrene], the nuclei count falls from 102 to 93.4.

Going from `Cc1cccc(C)c1NC(=O)CN1CCCC1=O` [Nefiracetam (Translon)] to `Cc1cccc(Cc2c[nH]cn2)c1C` [Detomidine HCl], the nuclei count rises from 102 to 108.

Compared with `CC[C@@H](C(=O)[C@@H](C)[C@@H](O)[C@H](C)[C@@H]1O[C@@H]([C@@H](CC)C(=O)O)CC[C@@H]1C)[C@H]1O[C@]2(C=C[C@@H](O)[C@]3(CC[C@@](C)([C@H]4CC[C@](O)(CC)[C@H](C)O4)O3)O2)[C@H](C)C[C@@H]1C` [Salinomycin (Procoxacin)], `C[C@H](CCC(=O)O)C[C@H](C)C[C@H](C)C(=O)/C=C(\O)[C@H](C)C[C@H](C)C/C=C/[C@@H](C)[C@@H](O)[C@@H](C)[C@@H](O)C[C@@H]1CC[C@@](C)([C@H]2CC[C@@](C)([C@@H](C)O)O2)O1` [Ionomycin] is lower in nuclei count: 97.2 for the first, 25.8 for the second.

First: C(#CCN1CCCC1)CN1CCCC1 [Tremorine dihydrochloride]
Second: S=C=Nc1cccc(C2(N3CCCCC3)CCCCC2)c1 [Metaphit]
The nuclei count of the first is higher: 103 for the first, 94.3 for the second.

Going from `C[C@]12CCC(=O)C=C1C=C[C@@H]1[C@@H]2CC[C@@]2(C)[C@H]1CC[C@@]2(O)CCC(=O)O` [Canrenoic acid potassium salt] to `C#C[C@]1(O)CC[C@H]2[C@@H]3CCC4=CC(=O)CCC4=C3C=C[C@@]21CC` [Gestrinone], the nuclei count falls from 104 to 94.5.

First: CCCC[N+]1(C)[C@@H]2C[C@@H](OC(=O)[C@H](CO)c3ccccc3)C[C@H]1[C@@H]1O[C@@H]12 (stereo not given in full) [Butylscopolamine bromide (Scopolamine butylbromide)]
Second: N[C@@H]1C[C@H]1c1ccccc1 [Tranylcypromine hydrochloride]
The nuclei count of the first is higher: 103 for the first, 89.7 ± 9.1 for the second.

Going from `CCCC(C)C1(CC)C(=O)NC(=O)NC1=O` (stereo not given) [Pentobarbital] to `CCCN(CCC)C1Cc2cc(OC)c(OC)cc2C1`, the nuclei count rises from 96.1 to 98.2.

First: C[C@]12C[C@H]3S[C@H]3C[C@@H]1CC[C@@H]1[C@@H]2CC[C@]2(C)[C@@H](O)CC[C@@H]12 [Epitiostanol]
Second: CC(=O)[C@H]1CC[C@H]2[C@@H]3CC[C@H]4C[C@](C)(O)CC[C@]4(C)[C@H]3CC[C@]12C [Ganaxolone]
The nuclei count of the first is higher: 105 for the first, 97.3 for the second.

Compared with `CNC1CC(N)C(O)C(OC2OC(CO)C(O)C3OC4(OC(C(N)CO)C(O)C(O)C4O)OC23)C1O` (stereo not given) [Hygromycin B], `C[C@@H]1CC[C@@]2(OC1)O[C@H]1C[C@H]3[C@@H]4CC=C5C[C@@H](O[C@@H]6O[C@H](CO)[C@@H](O[C@@H]7O[C@@H](C)[C@H](O)[C@@H](O)[C@H]7O)[C@H](O)[C@H]6O[C@@H]6O[C@@H](C)[C@H](O)[C@@H](O)[C@H]6O)CC[C@]5(C)[C@H]4CC[C@]3(C)[C@H]1[C@@H]2C` [Dioscin (Collettiside III)] is lower in nuclei count: 105 for the first, 9.01 for the second.

Going from `Cn1cc(C2=C(c3cn(C4CCN(Cc5ccccn5)CC4)c4ccccc34)C(=O)NC2=O)c2ccccc21` to `O=C1NC(=O)c2c1c1c3ccccc3n3c1c1c2c2ccccc2n1[C@H]1CC[C@@H]3O1`, the nuclei count falls from 111 to 60.9.

`C=CCN1CC[C@]23c4c5ccc(O)c4O[C@H]2C(=O)CC[C@@]3(O)[C@H]1C5` [Naloxone hydrochloride] and `O=C1CC[C@@]2(O)[C@H]3Cc4ccc(O)c5c4[C@@]2(CCN3CC2CC2)[C@H]1O5` [Naltrexone hydrochloride dihydrate] are within error of each other in nuclei count: 94.6 ± 12 for the first, 105 for the second.

Going from `COC(=O)[C@@H](N)CCCNC(=N)N[N+](=O)[O-]` [L-NAME hydrochloride] to `Cc1onc(O)c1CC(N)C(=O)O` (racemic), the nuclei count rises from 81.3 to 83.3.

Compared with `O=C(NCC1CCOCC1)c1cnc(Nc2ccc(Cl)cc2Cl)nc1C(F)(F)F`, `O=C1Nc2ccccc2C2(CCN(CCc3ccc(C(F)(F)F)cc3)CC2)O1` is lower in nuclei count: 97.2 for the first, 96.1 for the second.

`CC(N)Cc1cnc[nH]1` (stereo not given) and `Cc1onc(O)c1CC(N)C(=O)O` (racemic) [(RS)-AMPA hydrobromide] are the same in nuclei count: 97.3 for the first, 97.3 for the second.

Going from `O=C1C=CC[C@@H]2[C@H]3CCCN4CCC[C@@H](CN12)[C@@H]34` [Sophocarpine] to `O[C@H]1[C@H](O)[C@@H](O)CN2CC[C@H](O)[C@H]12` [Castanospermine], the nuclei count falls from 104 to 97.3.

First: CC(=O)O[C@H]1C[C@@H]2CC[C@@H]3[C@H](CC[C@@]4(C)[C@H]3C[C@H]([N+]3(C)CCCCC3)[C@@H]4OC(C)=O)[C@@]2(C)C[C@@H]1[N+]1(C)CCCCC1 [Pancuronium bromide]
Second: C/C(=C\c1csc(C)n1)[C@@H]1C[C@@H]2O[C@@H]2CCC[C@H](C)[C@H](O)[C@@H](C)C(=O)C(C)(C)[C@@H](O)CC(=O)O1 [Epothilone A]
The nuclei count of the first is higher: 103 for the first, 43.4 for the second.

Going from `CC(=O)O[C@H]1C[C@@H]2CC[C@@H]3[C@H](CC[C@@]4(C)[C@H]3C[C@H]([N+]3(C)CCCCC3)[C@@H]4OC(C)=O)[C@@]2(C)C[C@@H]1[N+]1(C)CCCCC1` [Pancuronium (Pavulon)] to `CC(C)(O)[C@H]1O[C@H]2CC[C@@]3(C)[C@@](O)(CC[C@H]4Cc5c([nH]c6ccccc56)[C@@]43C)C2=CC1=O` [Paxilline], the nuclei count falls from 106 to 91.2 ± 11.

First: NCC(O)c1ccc(O)cc1 (stereo not given) [Octopamine hydrochloride]
Second: NC[C@H](CC(=O)O)c1ccc(Cl)cc1 [(R)-baclofen]
The nuclei count of the first is higher: 105 for the first, 94.7 for the second.

Compared with `CN1CCCCC1Cn1cc(C(=O)c2cc([N+](=O)[O-])ccc2I)c2ccccc21` (stereo not given), `Oc1ccc2c3c1O[C@H]1c4[nH]c5ccccc5c4C[C@@]4(O)[C@@H](C2)N(CC2CC2)CC[C@]314` [Naltrindole hydrochloride] is lower in nuclei count: 98.4 for the first, 95.8 for the second.

Compared with `O=c1ccc2cc(O[C@@H]3O[C@H](CO)[C@@H](O)[C@H](O)[C@H]3O)c(O)cc2o1` [Aesculin (Esculin)], `COC1=C[C@@H]2[C@@H]3Cc4ccc(OC)c(O)c4[C@]2(CCN3C)CC1=O` [Sinomenine (Cucoline)] is higher in nuclei count: 97.2 for the first, 101 for the second.

Compared with `Cc1cc(C)cc(C(=O)OC2C[C@H]3CC[C@@H](C2)N3C)c1` (stereo not given in full) [Tropanyl-3,5-dimethylbenzoate], `CN1CCC2(C)c3cc(O)ccc3N(C)C12` (single isomer, unassigned; (-)) [(-)-Eseroline fumarate salt] is lower in nuclei count: 108 for the first, 61.2 for the second.

Going from `CC(NC(C)(C)C)C(=O)c1cccc(Cl)c1` (stereo not given) [Bupropion hydrochloride] to `NCC(CC(=O)O)c1ccc(Cl)cc1` (racemic) [Baclofen (R,S)], the nuclei count falls from 105 to 102.

First: CC1(C)[C@H](C(=O)O[C@H](C#N)c2cccc(Oc3ccccc3)c2)[C@@H]1C=C(Br)Br [Deltamethrin]
Second: COc1ccc(N(C(=O)Oc2c(C)cccc2C)c2ccnc(Nc3ccc(N4CCN(C)CC4)cc3)n2)c(OC)c1
The nuclei count of the first is higher: 108 for the first, 104 for the second.

Compared with `NC(=S)N/N=C/c1coc2ccccc2c1=O.[Cl][Cu][Cl]`, `Cn1c(CCCC(=O)O)nc2cc(N(CCCl)CCCl)ccc21` [Bendamustine HCL] is lower in nuclei count: 95.8 for the first, 81.5 for the second.

`CC(C)(C)c1cc(C=C(C#N)C#N)cc(Br)c1O` and `CN(C)CCc1ccc(O)cc1` [Hordenine] are the same in nuclei count: 101 ± 1.6 for the first, 101 for the second.

First: CC(C)[C@]12O[C@H]1[C@@H]1O[C@]13[C@]1(O[C@H]1C[C@H]1C4=C(CC[C@@]13C)C(=O)OC4)[C@@H]2O [Triptolide]
Second: O=C(O)[C@@H]1[C@H](C(=O)O)[C@H]2CC[C@@H]1O2 [Endothall]
The nuclei count of the first is lower: 28.9 for the first, 93.5 for the second.

In the case of `CN[C@@H]1[C@@H](O)[C@@H](O[C@@H]2[C@@H](O)[C@H](O[C@H]3O[C@H](CN)CC[C@H]3N)[C@@H](N)C[C@H]2N)OC[C@]1(C)O.CN[C@@H]1[C@@H](O)[C@@H](O[C@@H]2[C@@H](O)[C@H](O[C@H]3O[C@H]([C@@H](C)N)CC[C@H]3N)[C@@H](N)C[C@H]2N)OC[C@]1(C)O.CN[C@@H]1[C@@H](O)[C@@H](O[C@@H]2[C@@H](O)[C@H](O[C@H]3O[C@H]([C@@H](C)NC)CC[C@H]3N)[C@@H](N)C[C@H]2N)OC[C@]1(C)O` [Gentamicine sulfate], the nuclei count is reported as 110.
